# Data: article PMC4336329 (PLoS ONE, 2015)
# About 2,200 (0.71%) of roughly 310,000 compounds showed an effect of 50% or more. The effect is printed as a negative number. This is one part of the list.
# Molecular target: human ether-à-go-go-related gene (hERG) potassium channel (human, UniProt Q12809)
# Test: primary screen, population patch clamp on CHO cells stably expressing hERG
# Sequence of human ether-à-go-go-related gene (hERG) potassium channel (Q12809 whole entry, looked up): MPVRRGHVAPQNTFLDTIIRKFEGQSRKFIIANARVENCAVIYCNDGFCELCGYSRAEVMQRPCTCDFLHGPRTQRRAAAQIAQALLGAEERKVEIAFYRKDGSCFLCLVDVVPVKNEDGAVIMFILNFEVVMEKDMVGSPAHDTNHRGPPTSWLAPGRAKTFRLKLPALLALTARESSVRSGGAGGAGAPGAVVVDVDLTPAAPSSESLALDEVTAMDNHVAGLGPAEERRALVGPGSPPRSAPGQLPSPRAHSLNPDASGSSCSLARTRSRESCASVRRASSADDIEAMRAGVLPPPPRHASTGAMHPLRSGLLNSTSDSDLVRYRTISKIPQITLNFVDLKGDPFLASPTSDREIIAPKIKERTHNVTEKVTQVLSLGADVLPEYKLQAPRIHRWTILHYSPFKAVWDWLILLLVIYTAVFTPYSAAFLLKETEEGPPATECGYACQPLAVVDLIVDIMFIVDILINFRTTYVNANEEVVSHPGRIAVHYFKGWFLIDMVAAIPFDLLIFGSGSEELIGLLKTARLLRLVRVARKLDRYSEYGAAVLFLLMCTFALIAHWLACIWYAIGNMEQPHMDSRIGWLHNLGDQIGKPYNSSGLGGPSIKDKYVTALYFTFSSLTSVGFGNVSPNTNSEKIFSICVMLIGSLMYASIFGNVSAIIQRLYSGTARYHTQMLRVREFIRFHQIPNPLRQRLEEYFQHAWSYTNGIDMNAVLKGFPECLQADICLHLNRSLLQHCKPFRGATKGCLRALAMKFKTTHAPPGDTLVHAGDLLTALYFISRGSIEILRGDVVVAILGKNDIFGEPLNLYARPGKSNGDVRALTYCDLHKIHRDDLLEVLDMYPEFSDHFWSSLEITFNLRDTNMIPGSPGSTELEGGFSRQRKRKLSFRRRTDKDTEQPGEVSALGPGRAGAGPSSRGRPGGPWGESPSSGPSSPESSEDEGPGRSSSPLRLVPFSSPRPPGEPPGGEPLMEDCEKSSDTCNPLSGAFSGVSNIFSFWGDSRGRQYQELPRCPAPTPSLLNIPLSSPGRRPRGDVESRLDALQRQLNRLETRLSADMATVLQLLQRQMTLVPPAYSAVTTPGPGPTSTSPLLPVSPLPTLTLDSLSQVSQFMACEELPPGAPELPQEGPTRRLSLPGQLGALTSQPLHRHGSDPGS
row,Structure (SMILES),"hERG current change (%, negative = inhibition) at 1uM [%]"
1,FC(F)(F)COc1nc(N2CCCCC2)nc(N2CCNCC2)n1,7.46
2,Cc1ccc(C)c(Oc2cc(F)nc(N)n2)c1,12.3
3,O=C(Nc1ccccn1)C1CCN(S(=O)(=O)c2ccccc2)CC1,0.537
4,COc1ccc(NC(=O)COc2ccccc2)c(OC)c1,-4.37
5,N#C/C=C(/N)N1CCN(c2ccc(Cl)c(Cl)c2)CC1,-19.2
6,CC(C)c1ccc(NC(=O)C(c2ccccc2)N(C)C(=O)CCc2c[nH]c3ccccc23)cc1 (stereo not drawn),7.01
7,CCCn1nnnc1NCc1c(F)cccc1Cl,14.8
8,CN(C(=O)CSc1nnc(-c2cccnc2)o1)C1CCCCC1,8.91
9,CCC(C)Sc1nc2ccccc2c(=O)[nH]1 (stereo not drawn),4.32
10,COCCOCCn1c(/C=C/c2ccccc2)nc2ccccc21,0.416
11,C#CCOCCOCCOCCNc1nc(N2CCN(C(=O)Cn3cc(CC(C)O)nn3)CC2)nc(N2CCN(C(=O)[C@H](C)n3cc(CCC[NH+]=C(N)N)nn3)CC2)n1.[Cl-] (stereo partly drawn),11.9
12,CCOc1ccc(Br)cc1S(=O)(=O)Nc1ccc(Cl)c(S(=O)(=O)N(CC)c2ccccc2)c1,24.9
13,Cn1c(=O)c(=O)n(C)c2cc(S(=O)(=O)CCC(=O)Nc3c(F)c(F)c(F)c(F)c3F)ccc21,12
14,Cn1c(SCC(=O)Nc2nnc(-c3ccccc3)o2)nnc1C1CC1,9.34
15,CC(C)C(NC(=O)c1c(F)cccc1F)C(=O)NCc1ccc(S(=O)(=O)N2CCOCC2)cc1 (stereo not drawn),3.72
16,Cc1sc(NC(=O)CN2CCCC2)nc1-c1ccc2c(c1)CCN2C(=O)c1cccc(F)c1,9.35
17,CCN1C(=O)c2ccccc2Sc2ccc(C(=O)N3CCC4(CC3)OCCO4)cc21,7.42
18,O=C(CSc1nnc(Cc2ccc(Cl)cc2)o1)Nc1ccccc1,6.02
19,COC(=O)C1=C(c2cccc(OCc3ccccc3)c2)C[C@@H]2CC[C@H]1N2C(=O)NCc1ccccc1OC,10.6
20,S=c1[nH]nc(COc2ccc(Cl)cc2)n1Cc1ccco1,14.5
21,Cc1nc2ccc(C(=O)N3CCSCC3)cc2s1,7.04
22,COc1ccc(N2CCN(C(=O)CCCn3c(=O)c4cccn4c4cccnc43)CC2)cc1,0.127

row,Structure (SMILES),"hERG current change (%, negative = inhibition) at 1uM [%]"
1,O=C(NCc1ccco1)c1nc(-c2ccccc2)n(-c2ccccc2)n1,0.641
2,COc1ccc(CCNC(=O)c2c(-c3ccccc3)noc2C)cc1OC,11.3
3,CC(C)CN(C(=O)CN(C)S(=O)(=O)c1ccc(Cl)cc1)C1CCS(=O)(=O)C1 (stereo not drawn),1.14
4,Cc1ccc(C(=O)N[C@H](C(=O)Nc2sccc2C(N)=O)C(C)C)cc1,19.1
5,Cl.Nc1nc2nc[nH]c2c(=O)[nH]1,10.1
6,COc1ccccc1Nc1nc(N)nc(CN(C)C2CCCCC2)n1,-11.7
7,CCN(CC)c1ccc(NC(=O)c2cc3ccccc3o2)c(C)c1,14.8
8,Cc1nc(N)sc1C(=O)N/N=C/c1ccc([N+](=O)[O-])cc1,12.4
9,CCOC(=O)c1c(C)n(-c2ccc(C)cc2)c2ccc(OCC(O)CNCCCO)cc12.Cl (stereo not drawn),6.85
10,CC(C)NC(=S)NC1(C)CCS(=O)(=O)C1 (stereo not drawn),8.84
11,COc1cccc(C(=O)Nc2nc(-c3ccccc3)c(-c3ccccc3)o2)c1,7.38
12,COc1ccc(C(=O)n2nc(C#N)c(C#N)c2N)cc1,14.9
13,Cc1c(S(=O)(=O)c2ccccn2)c(N)n(Cc2ccccc2)c1C,9.74
14,CCOC(=O)c1ccc(N2C(=O)CC(N3CCC(O)(c4ccc(Br)cc4)CC3)C2=O)cc1 (stereo not drawn),4.01
15,CCN(CC)CCCNC(=O)c1cc2c(-c3ccc(Cl)cc3)nn(C)c2s1,-6.9
16,O=C(c1c[nH]c(=O)n(-c2ccccc2)c1=O)N1CCc2ccccc21,9.21
17,CCC(c1nnc(SCC(=O)Nc2cc(Cl)ccc2C#N)n1C1CCCCC1)N(C)C (stereo not drawn),9.91
18,Cc1ccc(NC(=O)/C=C/c2cccc([N+](=O)[O-])c2)nc1,7.93
19,O=C1CC(c2ccco2)CC(O)=C1C=Nc1ccccc1-c1ccccc1 (stereo not drawn),10.1
20,O=C(NCCSc1ccccc1)c1ccc(Br)cc1,10.3
21,COc1cccc(NC(=O)Cn2c3ccc(F)cc3c3nc4n(c(=O)c32)CCCS4)c1,12.2
22,CC[C@H](C)[C@@H](C(=O)N1CCNCC1)n1cc([C@@H](N)CO)nn1.Cl,-4.1

row,Structure (SMILES),"hERG current change (%, negative = inhibition) at 1uM [%]"
1,COc1ccccc1N1CCN(C(=O)CSc2nc(-c3ccccc3)cc(=O)[nH]2)CC1,3.09
2,[N-]=C=C1C(=S)NC(=O)[C@H]([n+]2ccccc2)[C@H]1c1ccc(Cl)cc1,13.9
3,O=S(=O)(N/N=C/c1ccc2c(c1)OCCO2)c1ccc(Cl)cc1,-2.64
4,COc1ccc(CNC(=O)c2ccc(Cl)c(NC3=NC4CS(=O)(=O)CC4S3)c2)cc1 (stereo not drawn),11.1
5,CN1CCN(C(=O)C2CCC(=O)N(CCc3cccc(F)c3)C2)CC1 (stereo not drawn),10.6
6,Cc1ccccc1NC(=O)N(C(C)C)C(C)C,0.671
7,CC(=O)N1CC(C)Sc2ccc(S(=O)(=O)NCCc3ccc(C)cc3)cc21 (stereo not drawn),4.69
8,COc1ccc(CNC(=S)NCc2ccc(OC)cc2)cc1,11.2
9,O=C(O)CC(NC(=O)C12CC3CC(CC(C3)C1)C2)c1ccc2c(c1)OCO2 (stereo not drawn),12.3
10,CCOc1ccc(OCC)c(NC(=O)C2C3C=CC(O3)C2C(=O)NCc2ccco2)c1 (stereo not drawn),-6.3
11,O=C1C2CCCN2C(c2cccs2)N1c1ccccn1 (stereo not drawn),12.5
12,CC(=O)Nc1ccc(OS(=O)(=O)c2cc(Cl)ccc2C)cc1,13.6
13,Cc1cc(C)nc(N(C#N)Cc2cccc3ccccc23)n1,15.9
14,CCOC(=O)N1CCC(NC(=O)Cc2cn(C)c3ccccc23)CC1,3.15
15,CCNC(=S)NCc1ccc(Cl)cc1,-2.06
16,COc1ccc(C(CNC(=O)c2cccc(NS(=O)(=O)c3ccc(C)c(F)c3)c2)N(C)C)cc1 (stereo not drawn),-17.5
17,COc1ccc(C(=O)NCCCSc2ccccc2)cc1F,13.3
18,COCC(O)CSc1c([N+](=O)[O-])nc(C)n1Cc1ccc(OC)c([N+](=O)[O-])c1 (stereo not drawn),-3.3
19,COc1ccccc1N1CCN(S(=O)(=O)c2ccc3c(c2)CC(C)N3C(C)=O)CC1 (stereo not drawn),3.56
20,Cc1cc(C)c(S(=O)(=O)Nc2ccccn2)c(C)c1,12.8
21,CN1c2ccc([N+](=O)[O-])cc2C(C)(C)C12C=Cc1cc(C(=O)O)ccc1O2 (stereo not drawn),13
22,CC(C)CNC(=O)COC(=O)CCC(=O)c1ccc(F)cc1,6.41

row,Structure (SMILES),"hERG current change (%, negative = inhibition) at 1uM [%]"
1,CC1CCN(C(=O)c2[nH]cnc2C(=O)N[C@H](C)c2ccccc2)CC1,14.9
2,COc1ccc(N2CCN(C(=O)/C=C/c3ccco3)CC2)cc1,6.52
3,CCOC(=O)N1CCN(S(=O)(=O)c2cc(-c3nn4c(C)nnc4c4ccccc34)ccc2C)CC1,-12.2
4,COc1ccc(N(C(=O)c2cccnc2)S(=O)(=O)c2ccc(Cl)cc2)cc1,4.89
5,CN(C)S(=O)(=O)n1cc(/C=C(\NC(=O)c2ccccc2F)C(=O)NCCCN2CCOCC2)c2ccccc21,-3.1
6,CCOc1ccc(N2C(=O)CSC2=S)cc1,19
7,CCOc1ccc(N(CC(=O)Nc2ccc(OC)cc2)C2=NC3CS(=O)(=O)CC3S2)cc1 (stereo not drawn),13.3
8,O=C(CSc1nc2ccccc2c(=O)n1-c1ccccc1)NCc1ccc2c(c1)OCO2,13.5
9,CCOC(=O)c1ccccc1-n1nnnc1C,13.4
10,NNC(=O)c1ccc(NS(=O)(=O)c2ccc(Br)cc2)cc1,5.7
11,COc1ccc(OCC(=O)N2CCOCC2)cc1,2.53
12,Cc1ccc(C(=O)NNC(=O)/C=C\C(=O)O)cc1,11.2
13,Nn1cnnc1N/N=C/c1ccc(F)cc1,9.92
14,O=C(c1ccsc1)N1CCCC(N2CCN(c3cccc(C(F)(F)F)c3)CC2)C1 (stereo not drawn),-11.4
15,O=C(Cn1cnc2ccccc2c1=O)N1CCN(Cc2ccc3c(c2)OCO3)CC1,2.38
16,CCOc1ccc(Nc2nc(N)c([N+](=O)[O-])c(NCc3ccccc3)n2)cc1,16
17,CCC(NC(=O)Nc1cc(C)on1)(C(F)(F)F)C(F)(F)F,9.27
18,CCn1c(COc2ccccc2)nnc1SCC(=O)C(C)(C)C,-7.57
19,Cc1cccc(S(=O)(=O)Nc2ccc3c(c2)OCCO3)c1,16.1
20,Cc1noc(C)c1Cc1c(Cl)cccc1Cl,14
21,COCCOC1CCN(C(=O)c2cc(COc3ccc(-n4cncn4)cc3)on2)CC1,-2.14
